Some test systems named below: WM115; WM1716; WM1745; WM3526; WM3619; WM451Lu.
Holding throughout (assay): cell count relative to DMSO control; melanoma cells; higher = more viable cells
Holding throughout (details): library dose: low library concentration; 72 h

Each structure is given as a SMILES string. The list shows a part of the results. Many values rest on one well or one pass, so single values are uncertain.
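Note: cell number obtained by counting DAPI-stained nuclei in high-throughput microscope images with image analysis software, screen run in 1,536-well plates.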

With `Cn1sc(=O)n(Cc2ccccc2)c1=O` + C[C@]12O[C@H](C[C@]1(O)CO)n1c3ccccc3c3c4c(c5c6ccccc6n2c5c31)CNC4=O [Lestaurtinib] (first compound 0.4 µM, partner dose 0.004 µM), the cell count with WM115 amounted to 101%; in the experiment with WM1716, 103%; in the experiment on WM1745, 114%; with WM3526, 97.5%; with WM3619, 90.2%; in the experiment on WM451Lu, 108%.

For `C/C(O)=C(\C#N)C(=O)Nc1cc(Br)ccc1Br` + O=C1NC(=O)/C(=C/c2ccc(-c3ccc(F)cc3O)o2)S1 [AS252424] (first compound 2 µM, partner dose 1 µM), the cell count was found to be 111% with WM115; 104% with WM1716; 106% in the experiment on WM1745; 101% in the experiment on WM3526; 87.1% in the experiment on WM3619; 92.8% in the experiment on WM451Lu.

With `Cc1cc(N2CCOCC2)cc2[nH]c(-c3c(NC[C@@H](O)c4cccc(Cl)c4)cc[nH]c3=O)nc12` + O=C(Oc1ccc([N+](=O)[O-])cc1)N1CCC(C(O)(c2ccc3c(c2)OCO3)c2ccc3c(c2)OCO3)CC1 [JZL184] (first compound 0.2 µM, partner dose 1 µM), the cell count with WM115 amounted to 96.7%; with WM1716 it was 72.5%; in the experiment on WM1745 it was 73.1%; in the experiment on WM3526, 85.9%; in the experiment on WM3619, 80.1%; in the experiment on WM451Lu it was 78.3%.

Take `Cc1cc(Nc2cc(N3CCN(C)CC3)nc(/C=C/c3ccccc3)n2)n[nH]1` + O=C(Oc1ccc([N+](=O)[O-])cc1)N1CCC(C(O)(c2ccc3c(c2)OCO3)c2ccc3c(c2)OCO3)CC1 [JZL184] (first compound 0.04 µM, partner dose 1 µM): the cell count in the experiment on WM115 is 77.9%; with WM1716, 96.8%; with WM1745, 84.1%; in the experiment with WM3526, 102%; in the experiment on WM3619 it was 131%; with WM451Lu, 98.6%.

Regarding `Nc1ncn([C@H]2C[C@H](O)[C@@H](CO)O2)c(=O)n1` [decitabine] + Cc1cc(SCc2sc(-c3ccc(C(F)(F)F)c(F)c3)nc2C)ccc1OCC(=O)O [GW0742] (first compound 0.1 µM, partner dose 2 µM), the cell count was found to be 84.3% in the experiment with WM115; 88.2% in the experiment on WM1716; 81.7% in the experiment on WM1745; 112% in the experiment with WM3526; 116% with WM3619; 115% with WM451Lu.

As for `CC(=O)O[C@@]12CO[C@@H]1C[C@H](O)[C@@]1(C)C(=O)[C@H](O)C3=C(C)[C@@H](OC(=O)[C@H](O)[C@@H](NC(=O)OC(C)(C)C)c4ccccc4)C[C@@](O)([C@@H](OC(=O)c4ccccc4)[C@H]21)C3(C)C` [Docetaxel] + C/C(O)=C(\C#N)C(=O)Nc1cc(Br)ccc1Br [LFM-A13] (first compound 0.0001 µM, partner dose 2 µM), the cell count in the experiment with WM115 worked out at 58.6%; in the experiment with WM1716, 36.8%; with WM1745, 45%; in the experiment with WM3526 it was 51.8%; in the experiment with WM3619, 66.1%; with WM451Lu, 48.1%.

As for `Cc1ccc(Nc2nccc(N(C)c3ccc4c(C)n(C)nc4c3)n2)cc1S(N)(=O)=O` [Pazopanib] + Cc1cc(SCc2sc(-c3ccc(C(F)(F)F)c(F)c3)nc2C)ccc1OCC(=O)O [GW0742] (first compound 0.4 µM, partner dose 2 µM), the cell count in the experiment with WM115 is 94.6%; in the experiment on WM1716 it was 92.6%; in the experiment with WM1745 it was 87.8%; with WM3526, 83.4%; in the experiment on WM3619, 85.3%; in the experiment on WM451Lu it was 95.4%.

In the case of `C=C(c1ccc(C(=O)O)cc1)c1cc2c(cc1C)C(C)(C)CCC2(C)C` [Bexarotene] + C[As](C)SC[C@H](NC(=O)CC[C@H](N)C(=O)O)C(=O)NCC(=O)O [Darinaparsin] (first compound 2 µM, partner dose 0.4 µM), the cell count in the experiment on WM115 was determined as 99.3%; in the experiment on WM1716 it was 87.5%; in the experiment on WM1745, 87.9%; in the experiment on WM3526, 86.8%; in the experiment on WM3619 it was 76.4%; in the experiment with WM451Lu, 85.1%.

On to `CC(C)(C)c1cnc(CSc2cnc(NC(=O)C3CCNCC3)s2)o1` + O=C(Oc1ccc([N+](=O)[O-])cc1)N1CCC(C(O)(c2ccc3c(c2)OCO3)c2ccc3c(c2)OCO3)CC1 [JZL184] (first compound 0.01 µM, partner dose 1 µM), for which the cell count in the experiment on WM115 was 97.6%; in the experiment with WM1716 it was 93.8%; in the experiment on WM1745 it was 84.9%; with WM3526 it was 94.7%; in the experiment with WM3619 it was 106%; in the experiment on WM451Lu, 95.3%.

Consider `C/C(O)=C(\C#N)C(=O)Nc1cc(Br)ccc1Br` + O=C(Oc1ccc([N+](=O)[O-])cc1)N1CCC(C(O)(c2ccc3c(c2)OCO3)c2ccc3c(c2)OCO3)CC1 [JZL184] (first compound 2 µM, partner dose 1 µM), for which the cell count in the experiment with WM115 is 93.8%; in the experiment with WM1716 it was 82.4%; with WM1745, 97.5%; in the experiment on WM3526, 78.1%; in the experiment with WM3619, 83.8%; in the experiment with WM451Lu it was 120%.

Take `C[C@]1(c2nc3c(C(N)=O)cccc3[nH]2)CCCN1` [Veliparib] + O=C(Oc1ccc([N+](=O)[O-])cc1)N1CCC(C(O)(c2ccc3c(c2)OCO3)c2ccc3c(c2)OCO3)CC1 [JZL184] (first compound 1.4 µM, partner dose 1 µM): the cell count in the experiment with WM115 worked out at 82.9%; in the experiment on WM1716 it was 64.9%; with WM1745, 84.1%; in the experiment on WM3526, 95.7%; in the experiment with WM3619, 139%; with WM451Lu it was 106%.

On to `Cn1cncc1[C@@](N)(c1ccc(Cl)cc1)c1ccc2c(c1)c(-c1cccc(Cl)c1)cc(=O)n2C` [tipifarnib] + Cc1cc(SCc2sc(-c3ccc(C(F)(F)F)c(F)c3)nc2C)ccc1OCC(=O)O [GW0742] (first compound 0.01 µM, partner dose 2 µM), for which the cell count with WM115 worked out at 100%; in the experiment on WM1716, 93.7%; in the experiment on WM1745, 98.4%; with WM3526, 86.2%; in the experiment on WM3619, 101%; with WM451Lu, 109%.

Take `CC1(C)NC(=O)N(c2ccc([N+](=O)[O-])c(C(F)(F)F)c2)C1=O` [nilutamide] + C/C(O)=C(\C#N)C(=O)Nc1cc(Br)ccc1Br [LFM-A13] (first compound 1 µM, partner dose 2 µM): the cell count in the experiment with WM115 amounted to 108%; in the experiment with WM1716, 80.7%; in the experiment with WM1745 it was 83.1%; in the experiment on WM3526 it was 93.5%; with WM3619, 88.7%; in the experiment on WM451Lu it was 103%.

With `COc1ccc(C2=N[C@@H](c3ccc(Cl)cc3)[C@@H](c3ccc(Cl)cc3)N2C(=O)N2CCNC(=O)C2)c(OC(C)C)c1` [Nutlin-3] + C[As](C)SC[C@H](NC(=O)CC[C@H](N)C(=O)O)C(=O)NCC(=O)O [Darinaparsin] (first compound 0.1 µM, partner dose 0.4 µM), the cell count was found to be 86.5% with WM115; 96.5% in the experiment with WM1716; 92.7% in the experiment with WM1745; 114% with WM3526; 93.7% with WM3619; 108% in the experiment with WM451Lu.

Regarding `O=C(O)[C@@H]1[O][Sb](=[O])([O][Sb]2(=[O])[O][C@H]([C@H](O)CO)[C@H](O)[C@H](C(=O)O)[O]2)[O][C@H]([C@H](O)CO)[C@@H]1O` (some centres undefined) [stibogluconate] + Cc1cc(SCc2sc(-c3ccc(C(F)(F)F)c(F)c3)nc2C)ccc1OCC(=O)O [GW0742] (first compound 2 µM, partner dose 2 µM), the cell count stood at 90.9% in the experiment on WM115; 106% with WM1716; 127% in the experiment on WM1745; 101% in the experiment with WM3526; 111% in the experiment with WM3619; 103% in the experiment on WM451Lu.

As for `NC(=O)c1ccc(N(C(N)=O)c2c(F)cccc2F)nc1-c1ccc(F)cc1F` + O=C(Oc1ccc([N+](=O)[O-])cc1)N1CCC(C(O)(c2ccc3c(c2)OCO3)c2ccc3c(c2)OCO3)CC1 [JZL184] (first compound 0.4 µM, partner dose 1 µM), the cell count is 83.8% with WM115; 104% in the experiment on WM1716; 89.7% in the experiment with WM1745; 81.3% in the experiment with WM3526; 106% in the experiment with WM3619; 96.2% in the experiment on WM451Lu.

As for `Cn1sc(=O)n(Cc2ccccc2)c1=O` + Cc1cc(SCc2sc(-c3ccc(C(F)(F)F)c(F)c3)nc2C)ccc1OCC(=O)O [GW0742] (first compound 0.4 µM, partner dose 2 µM), the cell count in the experiment with WM115 was found to be 99.9%; in the experiment with WM1716, 102%; with WM1745 it was 78.2%; with WM3526, 103%; in the experiment with WM3619 it was 92.1%; with WM451Lu it was 98.4%.

With `Nc1ncn([C@H]2C[C@H](O)[C@@H](CO)O2)c(=O)n1` [decitabine] + C[As](C)SC[C@H](NC(=O)CC[C@H](N)C(=O)O)C(=O)NCC(=O)O [Darinaparsin] (first compound 0.1 µM, partner dose 0.4 µM), the cell count in the experiment with WM115 was 77%; in the experiment on WM1716 it was 89.5%; in the experiment with WM1745 it was 101%; with WM3526 it was 113%; in the experiment on WM3619 it was 90.6%; in the experiment with WM451Lu it was 112%.

In the case of `O=C(Nc1ccccc1)c1cc([N+](=O)[O-])ccc1Cl` + O=C(Oc1ccc([N+](=O)[O-])cc1)N1CCC(C(O)(c2ccc3c(c2)OCO3)c2ccc3c(c2)OCO3)CC1 [JZL184] (first compound 2 µM, partner dose 1 µM), the cell count amounted to 102% in the experiment with WM115; 101% in the experiment with WM1716; 112% with WM1745; 102% with WM3526; 110% with WM3619; 94.4% in the experiment with WM451Lu.

Turning to `Cc1ccc(Nc2nccc(N(C)c3ccc4c(C)n(C)nc4c3)n2)cc1S(N)(=O)=O` [Pazopanib] + O=C(Oc1ccc([N+](=O)[O-])cc1)N1CCC(C(O)(c2ccc3c(c2)OCO3)c2ccc3c(c2)OCO3)CC1 [JZL184] (first compound 0.4 µM, partner dose 1 µM), the cell count in the experiment with WM115 came out at 110%; in the experiment on WM1716, 101%; with WM1745, 87.5%; in the experiment with WM3526 it was 79.4%; in the experiment on WM3619 it was 97.6%; in the experiment on WM451Lu, 84%.

As to `Cc1cn(-c2cc(NC(=O)c3ccc(C)c(Nc4nccc(-c5cccnc5)n4)c3)cc(C(F)(F)F)c2)cn1` [nilotinib] + C/C(O)=C(\C#N)C(=O)Nc1cc(Br)ccc1Br [LFM-A13] (first compound 0.2 µM, partner dose 2 µM), the cell count was 110% in the experiment on WM115; 112% in the experiment with WM1716; 99.7% in the experiment on WM1745; 136% with WM3526; 108% in the experiment with WM3619; 118% with WM451Lu.

Turning to `CC(C)(C)c1cnc(CSc2cnc(NC(=O)C3CCNCC3)s2)o1` + Cc1cc(SCc2sc(-c3ccc(C(F)(F)F)c(F)c3)nc2C)ccc1OCC(=O)O [GW0742] (first compound 0.01 µM, partner dose 2 µM), the cell count worked out at 97.4% with WM115; 102% with WM1716; 91.8% with WM1745; 151% with WM3526; 124% in the experiment on WM3619; 96.2% in the experiment on WM451Lu.

In the case of `OCc1c[nH]c2ccccc12` [Indole-3-carbinol] + C[As](C)SC[C@H](NC(=O)CC[C@H](N)C(=O)O)C(=O)NCC(=O)O [Darinaparsin] (first compound 0.8 µM, partner dose 0.4 µM), the cell count was determined as 93.6% in the experiment with WM115; 93.1% with WM1716; 102% in the experiment on WM1745; 90.7% in the experiment with WM3526; 99% with WM3619; 96.8% in the experiment on WM451Lu.

For `CCN(CC)CCNC(=O)c1c(C)[nH]c(/C=C2\C(=O)Nc3ccc(F)cc32)c1C` [sunitinib] + O=C(Oc1ccc([N+](=O)[O-])cc1)N1CCC(C(O)(c2ccc3c(c2)OCO3)c2ccc3c(c2)OCO3)CC1 [JZL184] (first compound 0.4 µM, partner dose 1 µM), the cell count in the experiment on WM115 is 105%; in the experiment on WM1716, 110%; with WM1745 it was 69.9%; with WM3526, 94%; in the experiment on WM3619, 110%; in the experiment on WM451Lu it was 78%.

The values are drawn from the supplement of paper PMC4604168 (melanoma cell lines).
